From patent US10945434B2, “Azole derivative, intermediate compound, method for producing azole derivative, agricultural or horticultural chemical agent, and protective agent for industrial material” (priority 2017, dated 2021)

Columns and labels:
Pyricularia oryzae = assay type: cell-based; settings: 25, 7 days
Ustilago nuda = experiment: Antimicrobial activity petri dish test, Ustilago nuda; assay type: cell-based; settings: 25, 7 days
Fusarium graminearum = assay type: cell-based; settings: 25, 3 days
Zymoseptoria tritici = experiment: Antimicrobial activity petri dish test, Zymoseptoria tritici; assay type: cell-based; settings: 25, 14 days
Gaeumannomyces graminis = experiment: Antimicrobial activity petri dish test, Gaeumannomyces graminis; assay type: cell-based; settings: 0.08 mg/L, 20, 3 days
[1] = test system: wheat (variety: agriculture No. 61)
Procedure: (§1) The wheat growth influence by the seed treatment and the control effect on puccinia recondite were evaluated. After a compound dissolved in DMSO was smeared into wheat seed (variety: agriculture No. 61) in a plastic tube so that the throughput was 200 g ai/100 kg seeds, 20 g ai/100 kg seeds, or 2 g ai/100 kg seeds, 8-grain wheat seeds were seeded in a 80 cm^2 pot. The lower feedwater was managed in the greenhouse, a plant height of the wheat was examined 16 days after the seeding, a growth degree (%) against the wheat was examined by the following Equation, and the growth degree was calculated by the following Equation. Growth degree (%)=(plant height in agent treated area/plant height in untreated area)×100

Rhizoctonia solani = experiment: Antimicrobial activity petri dish test, Rhizoctonia solani; assay type: cell-based; settings: tested substance 5 mg/L; PDA medium; 25, 1 day
Gibberella fujikuroi = experiment: Antimicrobial activity petri dish test, Gibberella fujikuroi; assay type: cell-based; settings: tested substance 5 mg/L; PDA medium; 25, 3 days
Sclerotinia sclerotiorum = experiment: Antimicrobial activity petri dish test, Sclerotinia sclerotiorum; assay type: cell-based; settings: tested substance 5 mg/L; PDA medium
Microdochium nivale = experiment: Antimicrobial activity petri dish test, Microdochium nivale; assay type: cell-based; settings: tested substance 5 mg/L; PDA medium; 25, 3 days
Septoria tritici = settings: for Control value: UK field test, emulsion sprayed twice (BBCH 31-32 and 37-39, 200 L/ha), flag leaf and second leaf severity 50 days after second spraying
Procedure: The control effect test on the Septoria tritici was tested in the UK test field using the emulsion (prepared in accordance with Preparation Example 2) containing the compound (I-1) and the control compound A as the active ingredients. The amount of agent contained in each emulsion was adjusted to the amount shown in Table 15 and sprayed twice in with growth stages BBCH 31-32 and 37-39 (200 L/ha). The severity of flag leaf and second leaf was evaluated after 50 days lapsed after the second spraying. The control value was calculated from the average severity of the flag leaf and the second leaf. Control value (%)=(1−average severity of treated area/average severity of untreated area)×100

[2] = test system: puccinia recondite-causing germs; settings: in vivo
Procedure: as §1
The spore fluid of the puccinia recondite-causing germs (adjusted to 200 spores/field of view, Gramin S of 60 ppm) was inoculated by the spraying and kept for 48 hours under high humidity conditions of 25° C. Thereafter, it was managed in a greenhouse. On 11 days after the inoculation, the morbidity of the puccinia recondite was examined, and the control value was calculated by the following Equation. The morbidity was examined on the same scale as that of Test Example 2. Control value (%)=(1−average morbidity of agent treated area/average morbidity of untreated area)×100

[3] = tested substance 5 mg/L, PDA medium

## CC(O)(Cn1cncn1)c1ccc(Oc2ccc(Cl)cc2)cc1C(F)(F)F (stereo not drawn)
Pyricularia oryzae; 0.63 mg/L, PDA medium
  antimicrobial index: 3 (Less than 60% and 40% or more)
Ustilago nuda; 1.25 mg/L
  antimicrobial index: 3 (key: 5: 80% or more; 4: Less than 80% and 60% or more; 3: Less than 60% and 40% or more; Less than 40% and 20% or more; 1: Less than 20%)
Fusarium graminearum; 1.25 mg/L, mycelium elongation inhibition rate on PDA medium
  antimicrobial index: 4 (Less than 80% and 60% or more)
Zymoseptoria tritici
  antimicrobial index: 4 (key: 5: 80% or more; 4: Less than 80% and 60% or more; 3: Less than 60% and 40% or more; Less than 40% and 20% or more; 1: Less than 20%)
Gaeumannomyces graminis
  antimicrobial index: 3 (key: 5: 80% or more; 4: Less than 80% and 60% or more; 3: Less than 60% and 40% or more; Less than 40% and 20% or more; 1: Less than 20%)

## CC(O)(Cn1cncn1)c1ccc(Oc2ccc(Cl)cc2)cc1C(F)(F)F (stereo not drawn) [control compound A]
[1]; agriculture No. 61, wheat, in vivo
  Growth degree (%): 90%

## COC(=O)C(O)(Cn1cncn1)c1ccc(Oc2ccccc2)cc1 (stereo not drawn) [control compound B, methyl 2-hydroxy-2-(4-phenoxyphenyl)-3-(1H-1,2,4-triazol-1-yl)propanoate]
Rhizoctonia solani
  antimicrobial index: 2 (Less than 40% and 20% or more)
Pyricularia oryzae
  antimicrobial index: 2 (key: 5: 80% or more; 4: Less than 80% and 60% or more; 3: Less than 60% and 40% or more; Less than 40% and 20% or more; 1: Less than 20%)
Gibberella fujikuroi
  antimicrobial index: 2 (Less than 40% and 20% or more)
Sclerotinia sclerotiorum
  antimicrobial index: 2 (Less than 40% and 20% or more)
Ustilago nuda; [3]
  antimicrobial index: 1 (Less than 20%)
Fusarium graminearum
  antimicrobial index: 3 (key: 5: 80% or more; 4: Less than 80% and 60% or more; 3: Less than 60% and 40% or more; Less than 40% and 20% or more; 1: Less than 20%)
Microdochium nivale
  antimicrobial index: 1 (Less than 20%)
Zymoseptoria tritici; [3]
  antimicrobial index: 1 (Less than 20%)
Gaeumannomyces graminis; PDA medium
  antimicrobial index: 1 (Less than 20%)

## COC(=O)C(O)(Cn1cncn1)c1ccc(Oc2ccc(Cl)cc2)cc1Cl (stereo not drawn) [Compound I-1, methyl 2-hydroxy-2-(2-chloro-4-(4-chlorophenoxy)phenyl)-3-(1H-1,2,4-triazol-1-yl)propanoate]
[1]; seed treatment, throughput 20 g ai/100 kg seeds, wheat plant height 16 days after the seeding
  Growth degree (%): 100%
[1]; wheat seed treatment
  growth influence on wheat / phytotoxicity: phytotoxicity was weak
Septoria tritici; dosage 90
  Control value: 92%
Septoria tritici; dosage 150
  Control value: 93%
Septoria tritici; emulsion, UK test field, sprayed twice, compared with emulsion of control compound A
  control value for the Septoria tritici: higher control value
[2]
  effect of controlling disease by the seed treatment: superior in effect of controlling disease than the control compound A

Like-named read-outs stand apart in the source and are kept apart here.
